# In PubChem BioAssay (Tox21):
# “And” between values parts separate entries of the source, which are not always exact repeats. Equal values may be shown once. The inconclusive results got no clear call from the source; some entries with a clear call stand among them for comparison. For part of these data: Potencies of inconclusive entries are doubtful fits and often do not repeat. More than one record can exist for a structure, and the calls need not agree. The source made the active and inactive calls. Unless noted, calls come from the whole dose curve; as a rule, active = well fitted curve in the direction sought with a large enough effect in the repeat runs; inconclusive = weak or mixed curves; inactive = no such curve, though single readings can be large; an effect the other way counts as inactive or inconclusive.
# Legend:
# [1] = qHTS RealTime-Glo MT Cell Viability Assay in HepG2 cells - 16 hour (AID 1224885); note: nearly all actives have a fitted effect of over 50% in size
# Summary of the method: (§1)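 Tox21 10K library screened in qHTS format on HepG2 cells carrying RealTime-Glo reagents. Compounds were added after a 5 h preincubation, and the luminescent signal from continuous culture was measured repeatedly during 40 h treatment.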
# [2] = qHTS RealTime-Glo MT Cell Viability Assay in HepG2 cells - 0 hour (AID 1224889); note: nearly all actives have a fitted effect of over 50% in size
# Summary of the method: as §1
# [3] = A CellTox Green Cytotoxicity Assay to monitor cytotoxicity in HepG2 cells - 8 hour (AID 1224890); note: nearly all actives have a fitted effect of over 45% in size
# Summary of the method: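 HepG2 cells, 600/well, preincubated 5 h with CellTox Green dye, then exposed to Tox21 compounds in DMSO at 37 C for up to 40 h. Dead-cell DNA fluorescence read at the indicated time point.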
# [4] = qHTS assay to identify small molecule phospholipidosis (PLD) inducers (AID 1259344; active = well fitted curve in the direction sought with a large enough effect; inconclusive = small, poorly fitted or top-dose-only effect, or another doubt; inactive = no such curve, though single readings can be large; an effect the other way counts as inactive or inconclusive)
# Summary of the method: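 Fluorescent phospholipid staining (LipidTOX Red) measured by automated microscopy in fixed HepG2 cells after 24 h treatment; nuclei counterstained with Hoechst 33342; amiodarone as reference inducer.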
# [5] = qHTS assay to identify small molecule antagonists of the sonic hedgehog signaling (Shh) pathway (AID 1259369; calls by dose curve; note: nearly all actives have a fitted effect of over 45% in size)
# Summary of the method: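 NIH/3T3-derived Gli1-Luc reporter cells plated 4 h, dosed with compound, then stimulated with conditioned medium for 24 h at 37 C. Firefly luciferase luminescence read after 30 min with detection reagent at room temperature.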
# [6] = target: Estrogen receptor beta (Homo sapiens) (UniProt Q92731); experiment: qHTS assay to identify small molecule antagonists of the estrogen receptor beta (ER-beta) signaling pathway (AID 1259378; active = well fitted inhibition curve with a large enough effect in the signal ratio in the repeat runs, not every such curve was filed as active; inconclusive = weak or mixed curves, or effect the other way; inactive = no such curve, though single readings can be large or run the other way; the % refers to the signal ratio); conditions: ER-beta-UAS-bla HEK293T, beta-lactamase FRET ratio, 16 h; activity, negative = inhibition: at 92.4 µM (top of the series) unless noted
# Chain of UniProt Q92731 (Q92731 whole entry, looked up): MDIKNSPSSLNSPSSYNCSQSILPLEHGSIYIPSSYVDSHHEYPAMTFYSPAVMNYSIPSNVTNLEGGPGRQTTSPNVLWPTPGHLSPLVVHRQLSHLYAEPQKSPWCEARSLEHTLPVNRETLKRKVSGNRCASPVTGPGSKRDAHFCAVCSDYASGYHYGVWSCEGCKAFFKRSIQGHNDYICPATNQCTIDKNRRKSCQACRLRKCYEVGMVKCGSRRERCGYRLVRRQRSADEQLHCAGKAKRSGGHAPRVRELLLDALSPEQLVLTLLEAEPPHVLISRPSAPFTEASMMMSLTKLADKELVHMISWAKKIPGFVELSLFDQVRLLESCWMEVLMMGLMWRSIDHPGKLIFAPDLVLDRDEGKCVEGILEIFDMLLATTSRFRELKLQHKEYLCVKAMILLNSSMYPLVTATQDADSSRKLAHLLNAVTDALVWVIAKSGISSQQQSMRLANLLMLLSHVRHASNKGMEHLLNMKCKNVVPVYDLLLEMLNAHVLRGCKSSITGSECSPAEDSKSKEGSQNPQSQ
# Summary of the method: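 Antagonist mode: compounds added to beta-lactamase reporter HEK293T ER-beta-UAS cells stimulated with E2 (1nM final), 16 hr at 37C. LiveBLAzer B/G FRET substrate, 2 hours room temperature, fluorescence read-out.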
# [7] = A CellTox Green Cytotoxicity Assay to monitor cytotoxicity in HEK293 cells - 16 hour (AID 1224888); note: nearly all actives have a fitted effect of over 35% in size
# Summary of the method: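 HEK293 cells, 600/well, were preincubated 5 hours and then exposed to compounds at 37 C for up to 40 hours. A cell-impermeant cyanine dye staining dead-cell DNA was read by fluorescence at 0, 8, 16, 24, 32 and 40 h time points.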
# [8] = target: Estrogen receptor (Homo sapiens) (UniProt P03372); experiment: qHTS assay to identify small molecule antagonists of the estrogen receptor alpha (ER-alpha) signaling pathway using the BG1 cell line in the presence of 0.1 nM 17-beta-estradiol (AID 1259244); note: nearly all actives have a fitted effect of over 50% in size
# Chain of UniProt P03372 (P03372 whole entry, looked up): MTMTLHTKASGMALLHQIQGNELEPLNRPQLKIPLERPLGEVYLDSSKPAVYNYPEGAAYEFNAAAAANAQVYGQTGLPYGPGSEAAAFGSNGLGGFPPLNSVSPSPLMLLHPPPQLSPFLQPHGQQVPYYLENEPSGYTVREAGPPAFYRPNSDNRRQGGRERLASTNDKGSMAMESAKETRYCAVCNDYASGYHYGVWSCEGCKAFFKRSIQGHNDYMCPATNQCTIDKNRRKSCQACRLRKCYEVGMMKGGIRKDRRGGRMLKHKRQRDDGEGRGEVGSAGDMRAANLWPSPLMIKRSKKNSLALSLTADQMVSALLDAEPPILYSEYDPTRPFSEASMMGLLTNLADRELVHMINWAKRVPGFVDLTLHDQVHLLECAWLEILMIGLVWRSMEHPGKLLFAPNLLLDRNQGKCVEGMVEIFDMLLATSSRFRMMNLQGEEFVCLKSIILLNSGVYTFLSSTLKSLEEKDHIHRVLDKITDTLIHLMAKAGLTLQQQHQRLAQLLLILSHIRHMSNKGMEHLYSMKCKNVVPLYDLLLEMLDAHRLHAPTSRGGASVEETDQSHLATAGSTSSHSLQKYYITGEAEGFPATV
# Summary of the method: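 VM7Luc4E2 cells (endogenous full-length ER-alpha, 4×ERE-luciferase), kept 5 days in phenol red-free, charcoal-stripped FBS medium; 4,000 cells/well. Compounds added with 0.1 nM (final) 17beta-estradiol, 22 hr at 37C; luminescence read with ONE-Glo after 30 min.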
# [9] = qHTS assay to identify small molecule antagonists of the sonic hedgehog signaling (Shh) pathway - cell viability counter screen (AID 1259367); note: nearly all actives have a fitted effect of over 55% in size
# Summary of the method: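 Using CellTiter-Fluor, viability of Gli1-Luc reporter 3T3 cells is read by fluorescence in the wells used for the Shh luciferase assay. Treatment lasts 23 hr with conditioned medium, then reagent 1 hr at 37C.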
# [10] = target: Estrogen receptor beta (Homo sapiens) (UniProt Q92731); experiment: qHTS assay to identify small molecule agonists of the estrogen receptor beta (ER-beta) signaling pathway (AID 1259377; active = well fitted activation curve with a large enough effect in the signal ratio in the repeat runs, not every such curve was filed as active; inconclusive = weak or mixed curves, or effect the other way; the % refers to the signal ratio; for activation: % is set by controls: 0 for no effect and ±100 for the full control effect); conditions: ER-beta-UAS-bla HEK293T, beta-lactamase FRET ratio, 16 h; activation: at 92.4 µM (top of the series) unless noted
# Summary of the method: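 HEK293T ER-beta-UAS-bla; 2% charcoal-stripped FBS; cells pre-incubated 6 hr, compound 16 hr, 37C/5% CO2; LiveBLAzer B/G FRET substrate 2 h RT; fluorescence intensity read.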
# [11] = target: Androgen receptor (Homo sapiens) (UniProt P10275); experiment: qHTS assay to identify small molecule antagonists of the androgen receptor (AR) signaling pathway using the MDA cell line in the presence of 0.5 nM R1881 (AID 1259243); note: nearly all actives have a fitted effect of over 50% in size
# Chain of UniProt P10275 (P10275 whole entry, looked up): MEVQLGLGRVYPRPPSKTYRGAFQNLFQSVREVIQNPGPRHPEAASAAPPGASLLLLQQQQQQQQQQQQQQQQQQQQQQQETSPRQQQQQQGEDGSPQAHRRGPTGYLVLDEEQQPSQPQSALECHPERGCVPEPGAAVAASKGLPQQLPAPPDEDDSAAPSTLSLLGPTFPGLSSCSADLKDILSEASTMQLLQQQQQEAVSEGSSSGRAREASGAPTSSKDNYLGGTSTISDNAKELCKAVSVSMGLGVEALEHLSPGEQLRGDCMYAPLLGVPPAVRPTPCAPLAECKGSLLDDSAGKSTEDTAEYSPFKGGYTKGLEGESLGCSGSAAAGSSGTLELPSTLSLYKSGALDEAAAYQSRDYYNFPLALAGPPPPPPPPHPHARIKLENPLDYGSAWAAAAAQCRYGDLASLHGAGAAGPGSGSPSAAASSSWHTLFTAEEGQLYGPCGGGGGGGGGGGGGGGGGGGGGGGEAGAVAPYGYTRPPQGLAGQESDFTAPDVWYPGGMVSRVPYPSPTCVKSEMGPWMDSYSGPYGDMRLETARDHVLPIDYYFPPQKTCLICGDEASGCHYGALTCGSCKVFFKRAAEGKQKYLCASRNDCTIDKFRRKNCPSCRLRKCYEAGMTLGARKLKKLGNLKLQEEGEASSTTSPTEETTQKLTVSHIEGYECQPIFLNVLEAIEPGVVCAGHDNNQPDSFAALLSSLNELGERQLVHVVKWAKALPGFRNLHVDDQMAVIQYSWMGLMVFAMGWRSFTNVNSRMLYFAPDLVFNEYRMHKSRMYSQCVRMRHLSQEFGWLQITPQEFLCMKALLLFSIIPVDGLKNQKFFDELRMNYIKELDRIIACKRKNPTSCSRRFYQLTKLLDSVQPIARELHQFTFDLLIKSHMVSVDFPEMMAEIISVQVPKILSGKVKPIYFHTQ
# Summary of the method: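 MDA-kb2 cells (MMTV-luciferase, responsive to AR and GR) at 3,000/well, rested 5 h at 37C, 0% CO2, then given compounds plus 0.5 nM R1881 (final) for 16 hr. Luciferase read with ONE-Glo after 30 min at room temperature.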
# [12] = qHTS assay to identify small molecule HDAC inhibitors (AID 1259364); note: nearly all actives have a fitted effect of over 45% in size
# Summary of the method: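 Wild-type HCT-116 cells, plated overnight at 37 C, exposed to compounds 2 hr at 37 C; luminogenic HDAC-Glo substrate then added 30 min at room temperature. Luminescence reports relative endogenous class I/II HDAC activity.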
# [13] = qHTS assay to identify small molecule agonists of the androgen receptor (AR) signaling pathway in the presence of an antagonist - cell viability counter screen (AID 1259379); note: nearly all actives have a fitted effect of over 25% in size
# Summary of the method: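 MDA-kb2 cells (MMTV-luciferase, AR/GR), 3,000/well, 5 h attachment, then 3.0 µM nilutamide (final) and compounds at 15 concentrations. Viability by CellTiter-Fluor fluorescence after 16 h at 37 °C, 0% CO2, in the reporter wells.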
# [14] = qHTS assay to identify small molecule agonists of the sonic hedgehog signaling (Shh) pathway - cell viability counter screen (AID 1259366); note: nearly all actives have a fitted effect of over 50% in size
# Summary of the method: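 Cytotoxicity counter screen run in the same wells as the Shh reporter assay. NIH/3T3 cells carrying a Gli1 response element–driven luciferase were treated with DMSO-dissolved compounds for 24hr, and live-cell protease activity was measured with CellTiter-Fluor.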
# [15] = qHTS assay to identify small molecule HDAC inhibitors - cell viability counter screen (AID 1259365); note: nearly all actives have a fitted effect of over 50% in size
# Summary of the method: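 Luminescence from CellTiter-Glo, developed 30min at room temperature, reports viability of wild-type HCT-116 cells treated 2hr with compounds at 37 C and 5% CO2 after overnight plating.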
# [16] = qHTS assay to identify small molecule antagonists of the estrogen receptor alpha (ER-alpha) signaling pathway using the BG1 cell line in the presence of 0.1 nM 17-beta-estradiol - cell viability counter screen (AID 1259241); note: nearly all actives have a fitted effect of over 40% in size
# Summary of the method: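 VM7Luc4E2, 4,000 cells/well, phenol red-free medium + 10% charcoal-stripped FBS; 24 hr plating; cpd + 0.1 nM E2 final, 22 hr 37C/5% CO2; CellTiter-Fluor 30 min, fluorescence.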
# [17] = qHTS assay to identify small molecule antagonists of the androgen receptor (AR) signaling pathway using the MDA cell line in the presence of 0.5 nM R1881 - cell viability counter screen (AID 1259242); note: nearly all actives have a fitted effect of over 45% in size
# Summary of the method: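 MDA-kb2 cells (MMTV-luciferase, AR/GR responsive) were treated with compounds plus 0.5 nM R1881 (final) for 16 hr at 37C, 0% CO2. Viability was then read in the same wells as live-cell protease fluorescence (CellTiter-Fluor, 30 min).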
# [18] = qHTS assay to identify small molecule agonists of the sonic hedgehog signaling (Shh) pathway (AID 1259368; calls by dose curve; note: nearly all actives have a fitted effect of over 15% in size)
# Summary of the method: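 NIH/3T3-derived 3T3Gli1-Luc cells with stably integrated Gli1-driven firefly luciferase, 2,000 cells/well, compounds added after 4 hr. Incubated 24 hr at 37C, 5% CO2; luminescence read after 30 min with luciferase reagent at room temperature.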
# Potency is the fitted concentration of half-maximal effect; tags give direction and shape of the fitted curve or compound fluorescence and quenching.
smiles,measurement,setting,value
CCC(=O)O[C@H]1CC[C@H]2[C@@H]3CCC4=CC(=O)CC[C@]4(C)[C@H]3CC[C@]12C,Potency,[1],inconclusive: 49 µM [cytotoxic]
same,Potency,[2],"active: 7.76 µM and inconclusive: 9.52 µM [cytotoxic, partial curve]"
same,Potency,[3],"inconclusive: 26.8 µM [activator, single point]"
same,Potency,[4],"inconclusive: 4.47 µM [activator, partial curve]"
same,Potency,[5],active: 30.6 µM and active: 18.8 µM
same,Potency,[6],"inconclusive: 68.6 µM [inhibitor, single point] and inconclusive: 23.7 µM [activator, partial curve]"
OCC(c1ccc(Cl)cc1)c1ccc(Cl)cc1,Potency,[1],"inconclusive: 43.6 µM [cytotoxic, partial curve]"
same,Potency,[7],active: 24.5 µM
same,Potency,[8],inconclusive: 68.6 µM [inhibitor]
same,Potency,[9],"inconclusive: 68.6 µM [cytotoxic, partial curve, poor fit]"
CCC(C)(C)C(=O)OC1=C(c2ccc(Cl)cc2Cl)C(=O)OC12CCCCC2,Potency,[1],inactive
same,Potency,[2],active: 34.7 µM
same,Potency,[5],"inconclusive: 54.5 µM [inhibitor, partial curve]"
same,activation,[10],inconclusive: 7.05%
same,Potency,[6],"inconclusive: 4.86 µM [activator, full curve, poor fit]"
CC(C)=CCOc1c2occc2cc2ccc(=O)oc12,Potency,[1],"inconclusive: 23.9 µM [cytotoxic, partial curve]"
same,Potency,[11],"inconclusive: 21.1 µM [inhibitor, partial curve]"
same,Potency,[4],"inconclusive: 28.2 µM [activator, single point]"
same,Potency,[12],inactive
same,Potency,[5],"inconclusive: 8.41 µM [inhibitor, full curve]"
COP(=O)(OC)O/C(=C\Cl)c1cc(Cl)c(Cl)cc1Cl,Potency,[1],"inconclusive: 54.9 µM [cytotoxic, partial curve, poor fit]"
same,Potency,[2],"inconclusive: 49 µM [cytotoxic, partial curve, poor fit]"
same,Potency,[8],"inconclusive: 68.6 µM [inhibitor, single point]"
same,Potency,[13],"inconclusive: 68.6 µM [cytotoxic, single point]"
CC(C)(c1ccccc1)c1ccc(O)cc1,Potency,[1],"inconclusive: 49 µM [cytotoxic, partial curve]"
same,Potency,[3],active: 43.6 µM
same,Potency,[8],"inconclusive: 68 µM [inhibitor, single point]"
same,Potency,[14],"active: 60.6 µM and inconclusive: 68.6 µM [cytotoxic, single point]"
same,Potency,[9],"inconclusive: 60.6 µM [cytotoxic, partial curve] and inconclusive: 68.6 µM [cytotoxic, single point]"
same,activation,[10],inconclusive: 0% and inconclusive: -0.782%
same,Potency,[6],active: 4.82 µM and active: 7.7 µM
CCC[CH2][Sn]([CH2]CCC)([CH2]CCC)[O][Sn]([CH2]CCC)([CH2]CCC)[CH2]CCC,Potency,[1],active: 0.676 µM
same,Potency,[3],active: 0.676 µM
same,Potency,[8],active: 0.377 µM
same,Potency,[15],"inconclusive: 1.89 µM [cytotoxic, partial curve]"
same,Potency,[14],active: 212 nM
same,Potency,[5],active: 0.212 µM
same,Potency,[6],"inconclusive: 3.77 µM [cytotoxic, single point]"
same,Potency,[13],active: 0.475 µM
Clc1ccc(C(c2ccc(Cl)cc2)C(Cl)Cl)cc1,Potency,[1],"inconclusive: 54.9 µM [cytotoxic, single point]"
same,Potency,[7],"inconclusive: 55.8 µM [activator, single point]"
same,Potency,[3],"inconclusive: 61.6 µM [activator, single point]"
same,Potency,[8],"inconclusive: 68.6 µM [inhibitor, single point]"
same,Potency,[14],"inconclusive: 68600 nM [cytotoxic, single point]"
same,Potency,[5],"inconclusive: 69.7 µM [inhibitor, single point]"
same,Potency,[13],"inconclusive: 68.6 µM [cytotoxic, partial curve, poor fit]"
Cc1ccc2c(c1N)C(=O)c1ccccc1C2=O,Potency,[1],"inconclusive: 34.3 µM [cytotoxic, partial curve]"
same,Potency,[3],inactive
same,Potency,[16],"inconclusive: 21.4 µM [cytotoxic, full curve] and inconclusive: 38.6 µM [cytotoxic, partial curve]"
same,Potency,[17],"inconclusive: 24.1 µM [cytotoxic, partial curve]"
same,Potency,[12],active: 7.61 µM and active: 9.69 µM
same,Potency,[14],"inconclusive: 19.1 µM [cytotoxic, partial curve] and inconclusive: 27.3 µM [cytotoxic, partial curve, poor fit]"
same,Potency,[9],"inconclusive: 27 µM [cytotoxic, partial curve] and inconclusive: 27.3 µM [cytotoxic, partial curve]"
same,Potency,[18],"inconclusive: 8.54 µM [activator, full curve, poor fit]"
same,Potency,[10],"inconclusive: 24.1 µM [fluorescent, partial curve]"
same,activation,[10],inconclusive: 4.7%
same,Potency,[13],"inconclusive: 24.3 µM [cytotoxic, partial curve]"
